Reference: PubChem BioAssay AID588855 (National Center for Advancing Translational Sciences (NCATS), 2011)
The whole screen tested about 410,000 compounds, of which about 5,000 (1.2%) were called active. Inconclusive means that the source gave no clear call. Such entries were picked first, then a sample of the others. Calls come from the whole dose curve; as a rule, active = well fitted inhibition curve with a large enough effect; inconclusive = small, poorly fitted or top-dose-only effect; inactive = no such curve, though single readings can be large or run the other way. Where the call is inconclusive, the potency comes from a doubtful curve fit.

test: qHTS for Inhibitors of TGF-b; conditions: HepG2 CAGA-GFP TGF-b/SMAD3 reporter, GFP fluorescence, 18 h, TGF-beta stimulated, 500 pg/mL final; series mostly up to 46.1 µM; note: nearly all actives have a fitted effect of over 65% in size
Method in brief: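 Inhibition was scored as loss of TGF-beta-induced (500 pg/mL final, 18 hours, 37 degrees C) GFP in HEPG2 cells carrying a CAGA-GFP reporter, in DMEM with 1% FBS. Well GFP was summed per cell; Activity was normalised to unstimulated and stimulated DMSO wells, then concentration-response fitting.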
Potency is the fitted concentration of half-maximal effect; tags give direction and shape of the fitted curve.

| SMILES | Potency |
| --- | --- |
| CCCOC(=O)c1cccc(NC(=O)COc2ccc([N+](=O)[O-])cc2)c1 | inactive |
| COc1ccc(C(=O)N(C)CCCC2CCCC2)cc1OC1CCN(C(C)C)CC1 | inconclusive: 11.2 µM [inhibitor, partial curve, poor fit] |
| Cc1cc(Nc2cccc(Cl)c2)nc2ccc(NC(=O)COc3ccc(Cl)cc3)cc12 | inconclusive: 35.5 µM [inhibitor, single point] |
| O=S(=O)(Nc1ccccc1O)c1cccc2cccnc12 | inconclusive: 12.6 µM [inhibitor, partial curve, poor fit] |
| CCOc1ccccc1N1C(=O)CC(N(O)c2ccccc2)C1=O (centres undefined) | inconclusive: 35.5 µM [inhibitor, partial curve, poor fit] |
| CCCCCCCC1(C)NC(=O)N(c2ccccc2)N1 (centres undefined) | inconclusive: 35.5 µM [inhibitor, single point] |
| COc1cc2ccccc2cc1C(=O)N1CCN(c2ccccc2O)CC1 | inconclusive: 28.2 µM [inhibitor, single point] |
| COCCn1c(C(F)(F)F)ccc(NC(=O)c2ccccc2)c1=O | inactive |
| CCOC(=O)c1cnc(SCC(=O)Nc2cc(OC)cc(OC)c2)nc1N | inactive |
| O=C(c1ccco1)N1N=C(c2cccs2)CC1c1ccccc1O (centres undefined) | inconclusive: 35.5 µM [inhibitor, single point] |
| COc1ccc(-c2nc(CSCC(=O)NCCC(C)C)c(C)o2)cc1OC | inconclusive: 2.51 µM [inhibitor, full curve, poor fit] |
| Cc1cccc(-c2cccc(NC(=O)C3CCCN(C(=O)c4csc(C)n4)C3)c2)c1 (centres undefined) | inconclusive: 15.8 µM [inhibitor, single point] |
| O=C(CC1Sc2ccccc2NC1=O)Nc1cccc(C(F)(F)F)c1 (centres undefined) | inactive |
| Cc1ccc2nc(C3CCN(CC(=O)Nc4ccc5c(c4)OCCO5)CC3)[nH]c2c1 | inconclusive: 35.5 µM [inhibitor, single point] |
| CN(C)C(=O)[C@H]1C[C@H]1[C@@H](O)[C@H](CO)NC(=O)[C@H](COCc1ccccc1)NC(=O)OC(C)(C)C | inconclusive: 3.98 µM [inhibitor, single point] |
| Cc1ccc(-n2nnnc2SCC(=O)c2c(N)n(C3CC3)c(=O)[nH]c2=O)c(C)c1 | inactive |
| CC(Nc1ccc([N+](=O)[O-])cc1[N+](=O)[O-])c1ccccc1 (centres undefined) | inconclusive: 25.1 µM [inhibitor, single point] |
| CCn1c(C)c(C)c2cc(C(=O)NCCN3CCCCCC3)ccc21 | inactive |
| CCCN(CC(=O)Nc1ccccc1OC)C(=O)c1ccc2[nH]c3c(c2c1)CC(C)CC3 (centres undefined) | inconclusive: 35.5 µM [inhibitor, single point] |
| O=[N+]([O-])c1ccc(N/N=C2\CC3CC=CC23)c([N+](=O)[O-])c1 (centres undefined) | inconclusive: 12.6 µM [inhibitor, single point] |
| Cc1oc2ccc(O)c(CN3CCCCCC3)c2c1C(=O)Nc1cccc(C(F)(F)F)c1 | inconclusive: 12.6 µM [inhibitor, partial curve, poor fit] |
| Nc1nc(N)nc(-c2cc(F)ccc2O)n1 | inconclusive: 35.5 µM [inhibitor, single point] |

| SMILES | Potency |
| --- | --- |
| CCOC(=O)c1c(C)n(C)c2ccc(OC)c(NC(=O)CN3CCN(Cc4ccccc4)CC3)c12 | inconclusive: 3.16 µM [inhibitor, single point] |
| COc1ccccc1N(CC(=O)Nc1ccccc1C(F)(F)F)S(=O)(=O)c1ccc(C)cc1 | inconclusive: 11.2 µM [inhibitor, partial curve, poor fit] |
| COC(=O)c1ccc(Cc2ccccc2)o1 | inconclusive: 2.24 µM [inhibitor, full curve] |
| CCc1cccc(CC)c1NC(=O)COC(=O)c1ccc2c(c1)S(=O)(=O)c1ccccc1C2=O | inconclusive: 35.5 µM [inhibitor, single point] |
| CC(C)Sc1nc2c(cnn2-c2ccc(Cl)cc2)c(=O)[nH]1 | inactive |
| CCOc1ccc(NC(=O)c2c(NCc3cccs3)sc3c2CCC(C)C3)cc1 (centres undefined) | inconclusive: 35.5 µM [inhibitor, single point] |
| CC1CC(C)(C)CC2(C1)NC(=O)N(CC(=O)Nc1cc(C(F)(F)F)ccc1N1CCCCC1)C2=O (centres undefined) | inactive |
| Cc1ccc(NC(=S)Nc2ccc(F)cc2)cc1C | inconclusive: 35.5 µM [inhibitor, single point] |
| CC(=O)Nc1cccc(C(=O)/C=C/c2ccc[nH]2)c1 | inactive |
| CC1CCc2[nH]c3ccc(C(=O)N4CCCC(C(F)(F)F)C4)cc3c2C1 (centres undefined) | active: 14.1 µM |
| CCN(CC)S(=O)(=O)c1cccc(C(=O)Nc2ccccc2C(=O)Nc2ccc(OC)cc2)c1 | inconclusive: 0.562 µM [inhibitor, partial curve, poor fit] |
| C[C@H](CO)N1C[C@H](C)[C@@H](CN(C)C(=O)Nc2ccc3c(c2)OCO3)Oc2ccc(NC(=O)Nc3ccc(C(F)(F)F)cc3)cc2C1=O | inconclusive: 35.5 µM [inhibitor, single point] |
| O=C1CCC(/C=C/c2ccccc2)=NN1Cc1ccccc1 | inconclusive: 12.6 µM [inhibitor, single point] |
| Cc1cccc(CN2CCc3c([nH]c4ccccc34)C2CC(C)C)n1 (centres undefined) | inactive |
| COc1ccc(S(=O)(=O)NNS(=O)(=O)c2ccc(OC)c(OC)c2)cc1OC | inconclusive: 35.5 µM [inhibitor, single point] |
| O=C(NNC(=O)c1cc(-c2ccc(Cl)c(Cl)c2)nc2ccccc12)Nc1ccccc1 | inconclusive: 3.16 µM [inhibitor, single point] |
| COCCN(Cc1ccccc1)C(=O)c1cccc(S(=O)(=O)N2CCCc3ccccc32)c1 | inconclusive: 10 µM [inhibitor, partial curve, poor fit] |
| CCN(CC)c1ccc(C2C(C(N)=O)=C(C)Nc3nc(SCc4ccccc4Cl)nn32)cc1 (centres undefined) | inconclusive: 35.5 µM [inhibitor, single point] |
| CCCC[n+]1ccc(-c2nc3ccc([N+](=O)[O-])cc3[nH]2)cc1 | inactive |
| CN1CCN(c2nc(-c3ccccc3)c3cc(Cl)ccc3n2)CC1 | inactive |
| O=[N+]([O-])c1ccc(NC(=S)NCCc2ccccc2)cc1 | inconclusive: 25.1 µM [inhibitor, single point] |
| COc1ccc(C)cc1NS(=O)(=O)c1ccc2oc(=O)c3ncn(C)c3c2c1 | inconclusive: 17.8 µM [inhibitor, partial curve, poor fit] |

| SMILES | Potency |
| --- | --- |
| CC1Oc2cc3oc4c(O)c5c(cc4c(=O)c3c(O)c2C1(C)C)C=CC(C)(C)O5 (centres undefined) | inconclusive: 35.5 µM [inhibitor, single point] |
| CCOC(=O)C1(C)CCN1C(=O)COc1ccccc1 (centres undefined) | inactive |
| O=C(NCCSCc1ccccc1)C1CCN(S(=O)(=O)Cc2ccccc2)CC1 | inconclusive: 12.6 µM [inhibitor, single point] |
| COc1ccc(NC(=O)CN(C)C(=O)c2cc(-c3ccco3)nc3ccccc23)cc1 | inconclusive: 35.5 µM [inhibitor, partial curve, poor fit] |
| Cc1cc(Oc2ncccc2[N+](=O)[O-])c2cc(Cl)ccc2n1 | inactive |
| O=C(/C=C/c1ccc(Cl)cc1)c1cccnc1 | inconclusive: 22.4 µM [inhibitor, single point] |
| Cn1cccc1/C=N/NC(=O)c1cc(-c2cccs2)nc2ccccc12 | inactive |
| CCOC(=O)C1=CCC(c2ccc(C)cc2)N(S(=O)(=O)c2ccc(C)cc2)C1 (centres undefined) | inconclusive: 3.98 µM [inhibitor, partial curve, poor fit] |
| CCCNC(=O)c1c(O)c2cccc3c2n(c1=O)CCC3 | inactive |
| CN(C)S(=O)(=O)c1ccc(C(=O)Nc2nc(-c3cc4ccccc4o3)cs2)cc1 | inconclusive: 12.6 µM [inhibitor, partial curve, poor fit] |
| COc1ccc(NC(=O)CCN2CCN(C/C=C/c3ccccc3)CC2)cc1 | inactive |
| O=C(NCc1ccc(OC(F)(F)F)cc1)C1CC(c2c(Cl)cccc2Cl)=NO1 (centres undefined) | inconclusive: 35.5 µM [inhibitor, single point] |
| c1ccc(OCCNc2ccn3nc(-c4ccc(OCCN5CCOCC5)cc4)cc3n2)cc1 | inconclusive: 11.2 µM [inhibitor, single point] |
| C=CCn1c(SCc2c(C(=O)OC)sc(N)c2C(=O)OC)nnc1-c1ccc(Cl)cc1 | inconclusive: 35.5 µM [inhibitor, partial curve, poor fit] |
| COc1ccc(C(=O)C2CCCN(Cc3cccn3-c3ccccn3)C2)c(C)c1 (centres undefined) | inconclusive: 35.5 µM [inhibitor, single point] |
| O=C(Nc1ccc2c(c1)OCO2)c1ccc(Cl)c(S(=O)(=O)N2CCOCC2)c1 | inconclusive: 35.5 µM [inhibitor, single point] |
| COc1ccccc1N(C(=O)c1cncc(Br)c1)c1nc(-c2ccc(C)cc2)cs1 | inconclusive: 6.31 µM [inhibitor, single point] |
| CC(C)C[C@H](NC(=O)c1nc[nH]c1C(=O)N1CCc2ccccc2C1)C(=O)OCc1ccccc1 | inconclusive: 35.5 µM [inhibitor, single point] |
| CCC/C(O)=C1\C(=O)CC(C)(C)CC1=Nc1ccccc1O | inconclusive: 3.55 µM [inhibitor, full curve, poor fit] |
| CCCCN(C)CCCNC(=O)c1cn(CC)c2ccc(S(=O)(=O)N3CCc4ccccc4C3)cc2c1=O | inconclusive: 22.4 µM [inhibitor, partial curve, poor fit] |
